From PubChem BioAssay AID1460 (National Center for Advancing Translational Sciences (NCATS), 2008)
Hit rate of the full screen: of about 270,000 compounds, about 5,800 (2.1%) were called active. Inconclusive means that the source gave no clear call. Such entries were picked first, then a sample of the others. The call rests on the fitted dose curve; in most records, active means well fitted inhibition curve with a large enough effect; inconclusive means small, poorly fitted or top-dose-only effect; inactive means flat fitted curve, though single readings scatter. A potency beside an inconclusive call is a rough fit, not a confirmed value.
Further: nearly all actives have a fitted effect of over 55% in size.
On the % scale 0 is the no-effect control and ±100 the full control effect; potency means the concentration at half of the fitted maximal effect; tags describe the fitted curve by direction and shape.

The compounds below were run against Microtubule-associated protein tau (Homo sapiens) (UniProt P10636) (assay: qHTS for Inhibitors of Tau Fibril Formation, Thioflavin T Binding). Conditions: recombinant tau K18 P301L, heparin-induced fibrillization, ThT fluorescence; series mostly up to 57.4 µM.
Chain of UniProt P10636 (P10636 whole entry, looked up): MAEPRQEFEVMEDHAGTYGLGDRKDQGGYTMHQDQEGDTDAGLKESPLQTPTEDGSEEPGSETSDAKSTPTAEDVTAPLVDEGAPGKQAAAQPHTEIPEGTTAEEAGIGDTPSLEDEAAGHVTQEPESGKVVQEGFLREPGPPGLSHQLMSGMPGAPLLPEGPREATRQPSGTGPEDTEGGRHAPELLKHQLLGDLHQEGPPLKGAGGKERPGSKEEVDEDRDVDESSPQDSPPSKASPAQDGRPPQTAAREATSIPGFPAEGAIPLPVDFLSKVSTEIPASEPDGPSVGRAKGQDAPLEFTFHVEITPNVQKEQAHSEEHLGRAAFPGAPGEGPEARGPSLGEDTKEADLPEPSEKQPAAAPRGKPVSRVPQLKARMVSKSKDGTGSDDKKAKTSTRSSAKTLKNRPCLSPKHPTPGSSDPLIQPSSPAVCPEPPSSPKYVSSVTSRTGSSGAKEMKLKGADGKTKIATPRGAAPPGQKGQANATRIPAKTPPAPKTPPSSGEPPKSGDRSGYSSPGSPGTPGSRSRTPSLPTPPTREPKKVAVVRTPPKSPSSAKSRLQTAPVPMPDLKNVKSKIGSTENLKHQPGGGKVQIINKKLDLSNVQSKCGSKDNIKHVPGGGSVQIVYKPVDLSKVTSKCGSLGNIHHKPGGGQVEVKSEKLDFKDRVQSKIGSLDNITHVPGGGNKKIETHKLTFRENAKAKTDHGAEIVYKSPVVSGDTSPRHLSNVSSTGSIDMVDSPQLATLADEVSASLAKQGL
Procedure, shortened: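 ThT emission at 510 nm, taken 1 hr after adding 30 uM dye, quantifies aggregates formed when 20 uM heparin acts on human tau K18 P301L for 6 hr at 37 C.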
In the case of `O=C1/C(=C/c2ccc(N3CCOCC3)o2)SC(=Nc2ccccc2)N1CCc1c[nH]c2ccccc12`, the Potency is reported as active: 14.1 µM.
In the case of `CCOC(=O)c1c(NC(=O)CSc2nnc(CNc3ccc(OC)cc3)n2C)sc(C)c1C`, the Potency is reported as inconclusive: 14.1 µM [inhibitor, partial curve].
With `CC(=O)c1ccc(NC(=O)CCc2c(C)nn(-c3ccc(N4CCCCC4)nn3)c2C)cc1` the Potency was inconclusive: 10 µM [inhibitor, partial curve].
With `COc1ccc2nc(C)cc(SCC(=O)Nc3c(C)cccc3C)c2c1` the Potency was inconclusive: 10 µM [inhibitor, partial curve].
`O=C(Oc1c(-c2ccccc2)c(=O)n2c3c(cccc13)CC2)c1ccccc1` was tested, and the Potency was inconclusive: 25.1 µM [inhibitor, partial curve].
In the case of `CCOc1ccc(CNC(=O)c2ccc3c(c2)nc2n3CCC(C)C2)cc1OC` (stereo not given), the Potency is reported as “inactive”.
In the case of `Oc1ccc(/C=N/Nc2nc(-c3ccccc3F)nc3ccccc23)c(O)c1`, the Potency is reported as active: 4.47 µM.
In the case of `Cc1csc(NC(=O)/C=C/c2ccc(C)o2)n1`, the Potency is reported as inconclusive: 3.55 µM [inhibitor, partial curve, poor fit].
In the case of `CCOC(=O)C1=C(C)Nc2sc(C(=O)c3ccc(OC)cc3)c(N)c2C1c1ccc(C(=O)OC)cc1` (stereo not given), the Potency is reported as “inactive”.
`O=C(CN1CCN(c2ccc(O)cc2)CC1)NC1CCCc2ccccc21` (stereo not given) was tested, and the Potency was inconclusive: 39.8 µM [inhibitor, single point].
`CC(C)(C)C1CCc2c(C(=O)NNC(=O)/C=C/C(=O)O)csc2C1` (stereo not given) was tested, and the Potency was inconclusive: 28.2 µM [inhibitor, single point].
In the case of `COc1ccc(-n2nc3ccc(NS(C)(=O)=O)cc3n2)cc1Cl`, the Potency is reported as inconclusive: 14.1 µM [inhibitor, partial curve].
For `COc1ccc(Nc2nc(-c3c[nH]c4ccccc34)cs2)cc1`, the Potency was active: 8.91 µM.
In the case of `Cc1ccc(C(=O)OCC(=O)Nc2sc3c(c2C#N)CCC3)cc1`, the Potency is reported as “inactive”.
In the case of `CCn1c(O)c(C=Nc2ccccc2)sc1=S`, the Potency is reported as inconclusive: 4.47 µM [inhibitor, full curve, poor fit].
`CCOc1ccc(-c2oc3cc(Cl)ccc3c(=O)c2O)cc1OC` was tested, and the Potency was inconclusive: 2 µM [inhibitor, full curve].
With `Cc1ccc(NCc2nnc(SCC(=O)c3ccccc3)o2)c(C)c1` the Potency was inconclusive: 15.8 µM [inhibitor, partial curve].
With `Cn1c(CCNC(=O)OC(C)(C)C)n[nH]c1=S` the Potency was “inactive”.
For `O=[N+]([O-])c1ccc(/C=N/NS(=O)(=O)c2ccc(Cl)cc2)o1`, the Potency was inconclusive: 12.6 µM [inhibitor, partial curve].
For `CC1(c2ccccc2)CC(C)(C)N2C(=O)C(=O)c3cccc1c32` (stereo not given), the Potency was inconclusive: 14.1 µM [inhibitor, partial curve].
With `CCOc1ccccc1NC(c1nnc(-c2ccccc2)o1)c1ccc(F)cc1Cl` (stereo not given) the Potency was “inactive”.
For `CCOc1ccc(/C=C/C2=NNC(=O)CC2)cc1`, the Potency was inconclusive: 10 µM [inhibitor, partial curve].
In the case of `COc1cc(C(=O)O/N=C(\N)c2ccccn2)cc(OC)c1OC`, the Potency is reported as “inactive”.
For `Cn1c(=O)oc2cc(S(=O)(=O)N3CCC(C(=O)N4CCN(c5ccc(Cl)cc5)CC4)CC3)ccc21`, the Potency was “inactive”.
`Cc1ccc2nc(SCC(=O)NCc3ccco3)c(C)cc2c1` was tested, and the Potency was inconclusive: 20 µM [inhibitor, single point].
In the case of `CC(=O)NNc1ncnc2ccccc12`, the Potency is reported as “inactive”.
With `CCN(CC)c1cc(C)c2cc(NC(=O)c3ccc(F)cc3Cl)ccc2n1` the Potency was inconclusive: 14.1 µM [inhibitor, partial curve].
For `COc1ccc(/C(O)=C2\C(=O)C(=O)N(CCN(C)C)C2c2cccc(OC)c2OC)cc1Cl` (stereo not given), the Potency was “inactive”.
With `CCc1c(C)nc(SCCOc2ccc(OC(C)C)cc2)[nH]c1=O` the Potency was inconclusive: 10 µM [inhibitor, partial curve, poor fit].
With `COc1ccc(-c2n[nH]c(C)c2-c2ccc(Cl)cc2)c(O)c1` the Potency was inconclusive: 35.5 µM [inhibitor, single point].
For `CCOc1ccccc1C(=O)N1c2ccccc2Sc2ccccc21`, the Potency was inconclusive: 35.5 µM [inhibitor, single point].
For `O=C(Nc1ccc2oc(-c3ccc(Cl)cc3)nc2c1)c1ccc2ccccc2c1`, the Potency was inconclusive: 5.62 µM [inhibitor, partial curve].
In the case of `Cc1cc(C)cc(NC(=O)c2nccnc2C(=O)O)c1`, the Potency is reported as inconclusive: 8.91 µM [inhibitor, single point].
`Cn1c(=O)c2cn(-c3cccc4ccccc34)cc2n(C)c1=O` was tested, and the Potency was inconclusive: 39.8 µM [inhibitor, single point].
For `CCOc1ccc(C2C=C(c3ccc(C)cc3)Nc3nnnn32)cc1` (stereo not given), the Potency was “inactive”.
For `CCOC(=O)c1c(NC(=O)c2ccc(OC)c(OC)c2)sc2c1CCCCC2`, the Potency was inconclusive: 35.5 µM [inhibitor, single point].
`Cc1nn(-c2ccc(N3CCCCC3)nn2)c(C)c1CCC(=O)NCc1ccc(Cl)cc1` was tested, and the Potency was inconclusive: 7.94 µM [inhibitor, partial curve].
In the case of `Clc1ccc(-c2csc(N/N=C\c3cccnc3)n2)cc1`, the Potency is reported as inconclusive: 12.6 µM [inhibitor, partial curve].
In the case of `CCOC1=NN(c2ccccc2)C(=O)/C1=C\N(C)C`, the Potency is reported as “inactive”.
In the case of `COc1cc(/C=C/C(=O)c2c(O)cc(C)oc2=O)ccc1O`, the Potency is reported as inconclusive: 17.8 µM [inhibitor, partial curve].
With `CC1=C(C(=O)N2CCOCC2)C(c2ccc(C)cc2)NC(=S)N1` (stereo not given) the Potency was “inactive”.
With `O=c1cc(-c2ccccc2)c2ccc3c(c2o1)CN(Cc1ccccc1)CO3` the Potency was inconclusive: 28.2 µM [inhibitor, single point].
For `CCc1ccc(-c2nc(CN3CCC(C(=O)NCc4ccccc4OC)CC3)c(C)o2)cc1`, the Potency was inconclusive: 3.55 µM [inhibitor, full curve].
For `O=C(O)Cc1sc(NCc2ccco2)nc1-c1ccccc1`, the Potency was inconclusive: 12.6 µM [inhibitor, partial curve].
`CCc1ccccc1NC(=O)Cn1cc2c(n1)CCC(C)C2` (stereo not given) was tested, and the Potency was “inactive”.
With `O=S(=O)(Nc1nc2ccccc2nc1N1CCN(c2ccccn2)CC1)c1ccc(Cl)cc1` the Potency was inconclusive: 20 µM [inhibitor, partial curve].
With `CC(=O)O/N=C(\N)c1ccc(-c2csnn2)cc1` the Potency was inconclusive: 31.6 µM [inhibitor, partial curve, poor fit].
With `O=C(O)/C=C\C(=O)Nc1ccc(N2CCN(c3ccc(Cl)c(Cl)c3)CC2)cc1` the Potency was active: 2.24 µM.
With `COc1ccc(-c2cc(C(=O)OCC(=O)c3c(N)n(C)c(=O)n(C)c3=O)c3ccccc3n2)cc1` the Potency was “inactive”.
In the case of `Cc1ccc(CNc2cc(C)nc3nc(-c4cccc(C)c4)nn23)cc1`, the Potency is reported as inconclusive: 22.4 µM [inhibitor, single point].
In the case of `O=C1c2ccccc2C2=Nc3ccccc3SC(c3ccccc3F)C12` (stereo not given), the Potency is reported as active: 7.94 µM.
`CCCCCCNc1nc(-c2ccc(OC)cc2)c(CCC(=O)O)s1` was tested, and the Potency was “inactive”.
In the case of `COc1ccc(OC)c(NC(=O)c2cc(=O)c3c(C)cc(C)cc3o2)c1`, the Potency is reported as inconclusive: 39.8 µM [inhibitor, single point].
`O=C(/C=C/c1cccc([N+](=O)[O-])c1)c1cccs1` was tested, and the Potency was inconclusive: 15.8 µM [inhibitor, partial curve].
`c1ccc2c(c1)Nc1ccncc1S2` was tested, and the Potency was inconclusive: 8.91 µM [inhibitor, partial curve].
With `Cc1ccc(-n2nc(C(=O)N3CCN(c4cccc(C(F)(F)F)c4)CC3)c3c4ccccc4n(C)c3c2=O)cc1` the Potency was “inactive”.
`CCCC(=O)Nc1ccc(NC(=O)C2CC2)cn1` was tested, and the Potency was inconclusive: 20 µM [inhibitor, partial curve].
`COc1ccc(-c2cc(-c3ccccc3)c(C#N)c(SCC(=O)Nc3ncc(C)s3)n2)cc1` was tested, and the Potency was “inactive”.
In the case of `O=C(/C=C/c1ccc([N+](=O)[O-])cc1)c1cccnc1`, the Potency is reported as inconclusive: 12.6 µM [inhibitor, partial curve].
With `CC(=NCc1ccco1)c1c(C)[nH]n(-c2nc3ccccc3s2)c1=O` the Potency was “inactive”.
With `COc1ccc(Cl)cc1NC(=O)C(C)N1CCN(C/C=C/c2ccccc2)CC1` (stereo not given) the Potency was inconclusive: 22.4 µM [inhibitor, partial curve].
For `COc1ccc(OC)c(Nc2nc(NCCCN(C)C)nc(N)c2[N+](=O)[O-])c1`, the Potency was inconclusive: 31.6 µM [inhibitor, partial curve].
With `CC(=O)OCC1=C(C(=O)O)N2C(=O)C(NC(=O)c3ccc(COc4cccc(Cl)c4Cl)o3)C2SC1` (stereo not given) the Potency was inconclusive: 14.1 µM [inhibitor, partial curve].
In the case of `Cn1c(=O)c(=O)n(C)c2cc([N+](=O)[O-])c([N+](=O)[O-])cc21`, the Potency is reported as inconclusive: 14.1 µM [inhibitor, partial curve].
In the case of `CC(=O)N1CCc2cc(NC(=O)c3ccc(C)cc3)ccc21`, the Potency is reported as inconclusive: 7.08 µM [inhibitor, partial curve].
With `CCNC(=S)NC1CC2CCC(C1)N2Cc1ccccc1` (stereo not given) the Potency was “inactive”.
`C=CCn1c(SCc2ccccc2Cl)nnc1-c1sc2nc(C)cc(C)c2c1N` was tested, and the Potency was inconclusive: 11.2 µM [inhibitor, partial curve].
In the case of `CCOC(=O)c1cccc(NC(=O)CCc2c(C)nn(-c3ccc(N4CCOCC4)nn3)c2C)c1`, the Potency is reported as inconclusive: 12.6 µM [inhibitor, partial curve].
`Cc1cc(C)n(CCc2nc3c4ccccc4nc(N4CCN(c5ccc(F)cc5)CC4)n3n2)n1` was tested, and the Potency was “inactive”.
In the case of `C=CCC(O)CC1C2C(CC(O)CC=C)C3C1C3C2OC(C)(C)C` (stereo not given), the activity, negative = inhibition is reported as inactive: -13.8% [at 11.5 µM].
